The whole screen tested about 48,000 compounds, of which about 120 (0.25%) were called active. Inconclusive means that the source gave no clear call. Such entries were picked first, then a sample of the others. The call rests on the fitted dose curve; in most records, active means well fitted activation curve with a large enough effect; inconclusive means small, poorly fitted or top-dose-only effect, or another doubt; inactive means no such curve, though single readings can be large or run the other way. A potency beside an inconclusive call is a rough fit, not a confirmed value.
Assay: Primary qHTS for Identification of Small Molecule Activators of Huntingtin-Antisense Promoter Activity; further: nearly all actives have a fitted effect of over 55% in size
Settings: HEK293 HTT-AS promoter firefly luciferase reporter, 24 h; activity change, positive = activation: at 57.5 µM (top of the series), percent change from vehicle, -100% = no light unless noted
Summary of the method: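 Firefly luciferase readout (Dual-Glo, 10 min RT) after 24 h, 37 °C compound exposure (final up to 57.5 uM) of HEK293 reporter cells cultured 24 h beforehand; PTC124 at 50 uM final as control inhibitor; activity scaled vehicle 0%, zero RLU -100%.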
Potency means the concentration at half of the fitted maximal effect; tags describe the fitted curve by direction and shape.

SMILES	Potency	activity change, positive = activation
O=c1c(-c2ccc(O)cc2)coc2cc(O)ccc12	inconclusive: 12.2 µM [activator, partial curve]	–
CNC(=O)CSc1nnc(NC(=O)Nc2ccccc2)s1	inconclusive: 22.4 µM [activator, single point]	–
CCN1CCN(c2cc(C)c3cc(NC(=O)c4ccccc4F)ccc3n2)CC1	inconclusive: 5.01 µM [activator, partial curve]	–
CC(C)(C)c1ccc(-c2noc(CCC(=O)Nc3cccc(Cl)c3)n2)cc1	–	inconclusive: -85.7% [activator]
COc1ccccc1CNC(=O)c1cc2c(s1)-c1ccccc1OC2	inconclusive: 2 µM [activator, full curve]	–
CCc1ccc2c(c1)-c1ccccc1S(=O)(=O)N2CC(=O)N1CCCCC1	inconclusive: 15.8 µM [activator, partial curve, poor fit]	–
COc1ccc(NC(=O)CSc2nccn2Cc2ccco2)c(OC)c1	inconclusive: 17.8 µM [activator, partial curve, poor fit]	–
CC1=C(C(=O)Nc2ccc(Cl)cc2)C(c2ccc(C(F)(F)F)cc2)n2nnnc2N1 (stereo not drawn)	–	inactive: -30.9%
CCOC(=O)O[C@]1(C(=O)OCCl)CC[C@@H]2[C@H]3CCC4=CC(=O)C=C[C@]4(C)[C@@H]3[C@@H](O)C[C@@]21C	inconclusive: 4.32 µM [activator, partial curve]	–
COc1cccc(-n2nnc(-c3nc(-c4ccccc4F)no3)c2C)c1	inconclusive: 0.891 µM [activator, partial curve, poor fit]	–
Fc1ccc(-c2cn3cc(Cc4ccccc4)sc3n2)cc1	–	inconclusive: -22.5% [activator]
CCCN(CCC)C(=O)Cn1c(=O)n(-c2ccc(Cl)cc2)c(=O)c2c3c(sc21)CCCC3	–	inactive: -6.73%
COc1ccc(NC(=O)c2csc3c2CCCCC3)cc1	inconclusive: 1.12 µM [activator, partial curve, poor fit]	–
COc1ccc(N2CCN(C(=O)C3CCCN(S(=O)(=O)c4ccc5c(c4)CCCN5C(C)=O)C3)CC2)cc1 (stereo not drawn)	–	inactive: -46.6%
CCOC(=O)c1cnc2c(ccc3ccccc32)c1Nc1ccccc1OCC	–	inactive: 19.5%
CCC(C)n1c(=N)c(C(=O)NCc2ccccc2)cc2c(=O)n3cc(C)ccc3nc21 (stereo not drawn)	–	inconclusive: 71.7% [activator]
CCOc1ccc(CCNC(=O)c2csc3c2CCCCC3)cc1	–	inactive: -21.7%
Cc1cc(C)cc(Nc2cc(C)nc3nncn23)c1	–	inactive: -4.32%
CCC(CC)C(=O)Nc1ccc(-c2cn3cccnc3n2)cc1	inconclusive: 17.8 µM [activator, single point]	–
CCOC(=O)N1CCN(c2ncc3c(n2)CC(c2ccccc2O)CC3=O)CC1 (stereo not drawn)	–	inactive: -29.6%
Cc1noc(C)c1S(=O)(=O)Nc1ccc(C(=O)Nc2ccc(Br)cc2)cc1	–	inactive: -30.8%
Cc1ccc(O)c(-n2nc3ccccc3n2)c1	inconclusive: 39.8 µM [activator, single point]	–
Cc1ccc(-c2csc(/C(C#N)=C/c3ccccc3Cl)n2)cc1	inconclusive: 28.2 µM [activator, single point]	–

SMILES	Potency	activity change, positive = activation
COc1cc2c(cc1NC(=O)COc1cc(C)ccc1C)oc1ccccc12	–	inconclusive: -31.3% [activator]
CC(=O)N1CCC(N(C(=O)Nc2ccc(C)c(F)c2)C(C)C)CC1	inconclusive: 15.8 µM [activator, partial curve]	–
O=[N+]([O-])c1cc(-c2nc(-c3ccccc3)no2)ccc1NCC1CCCO1 (stereo not drawn)	inconclusive: 1.26 µM [activator, partial curve, poor fit]	–
CC(=O)Nc1ccc(NC(=O)CCCc2nc(-c3ccc(C(C)(C)C)cc3)no2)cc1	–	inconclusive: -89% [activator]
CCOc1ccc(C(=O)Nc2c(C(=O)c3ccccc3)oc3ccccc23)cc1	–	inactive: -2.31%
Cc1ccc(CN2CCSc3ccc(C(=O)Nc4ccc(Cl)cc4)cc32)cc1	inconclusive: 10 µM [activator, partial curve, poor fit]	–
CC(=O)Nc1nonc1-c1nnc(SCc2ccc(F)cc2)n1C	–	inactive: -9.04%
COc1ccc(NC(=O)COCc2cc(-c3ccco3)on2)cc1	–	inactive: 7.49%
Fc1ccccc1Oc1ncnc2c1oc1ccccc12	inconclusive: 8.91 µM [activator, partial curve]	–
CCCCC(CC)CNC(=O)CCCc1nnc2n(CCC)c(=O)c3sccc3n12 (stereo not drawn)	–	inactive: -15.5%
CCC(C(=O)O)c1ccc(N2Cc3ccccc3C2=O)cc1 (stereo not drawn)	inconclusive: 1.78 µM [activator, partial curve, poor fit]	–
Cc1ccc(CNC(=O)CSCc2ccccc2C)cc1	inconclusive: 17.8 µM [activator, partial curve, poor fit]	–
COc1cc(Cl)c(C)cc1NC(=O)CC1Oc2ccccc2NC1=O (stereo not drawn)	–	inactive: -29%
COc1ccc(Cn2ccnc2SCC(=O)Nc2ccc3c(c2)OCCO3)cc1	inconclusive: 28.2 µM [activator, partial curve, poor fit]	–
CC(=O)O[C@H]1C(=O)[C@@]2(C)C([C@H](OC(=O)c3ccccc3)[C@]3(O)C[C@H](OC(=O)[C@H](O)[C@@H](NC(=O)c4ccccc4)c4ccccc4)C(C)=C1C3(C)C)[C@]1(OC(C)=O)CO[C@@H]1C[C@@H]2O (stereo partly drawn)	–	inactive: -29.1%
COc1cccc(CN2C(=O)c3ccccc3Sc3ccc(C(=O)NCc4ccccc4)cc32)c1	–	inactive: -17.1%
CC1CCc2onc(C(=O)Nc3ccc(Cl)cc3)c2C1 (stereo not drawn)	inconclusive: 1.58 µM [activator, full curve, poor fit]	–
COc1cccc(-c2nc(-c3ccc(Br)o3)no2)c1	inconclusive: 1 µM [activator, partial curve, poor fit]	–
COc1ccc(OCC(=O)Nc2ccc(-c3nc4cc(Cl)ccc4o3)cc2)cc1	inconclusive: 0.224 µM [activator, full curve]	–
NC(=O)c1nc(Nc2ccccc2)sc1NC(=O)c1c(F)cccc1F	inconclusive: 1.58 µM [activator, full curve, poor fit]	–
CS(=O)(=O)N1CCN(Cc2cc3nc(-c4cccc5[nH]ncc45)nc(N4CCOCC4)c3s2)CC1	–	inactive: -25.9%
CCOC(=O)c1cccc(NS(=O)(=O)c2cc(-c3cnc(C4CC4)o3)ccc2C)c1	–	inactive: -13.3%
COc1ccc(NC(=O)c2ccc3c(c2)sc2nc(-c4ccc(OC)cc4)cn23)cc1	inconclusive: 17.8 µM [activator, single point]	–

SMILES	Potency	activity change, positive = activation
Cc1ccc(-c2cn(-c3cccc(Cl)c3)c(S(=O)(=O)CC(=O)Nc3ccccc3F)n2)cc1	inconclusive: 15.8 µM [activator, partial curve, poor fit]	–
O=C(Nc1nnc2n1CCS2)c1ccc(F)cc1F	inconclusive: 25.1 µM [activator, single point]	–
O=C(OCC#CCSc1nnc(-c2cccc3ccccc23)o1)c1cc2ccccc2s1	inconclusive: 21.7 µM [activator, partial curve]	–
CCc1nonc1NC(=O)c1oc2ccc(F)cc2c1C	inconclusive: 8.91 µM [activator, partial curve, poor fit]	–
Cc1cc(C)c2nc(N3CCCC(C(=O)NCc4cccc(Cl)c4)C3)sc2c1 (stereo not drawn)	inconclusive: 1.41 µM [activator, partial curve, poor fit]	–
CCOC(=O)c1nnc2c(-c3ccc(OC)cc3)c(C)nn2c1N	–	inactive: -8.09%
COCCn1c(SCC(=O)Nc2ccc(F)c(Cl)c2)nc2c(oc3ccccc32)c1=O	–	inactive: -45%
Cc1c(C(=O)Nc2ccccc2Br)oc2ccc(S(=O)(=O)N3CCCCC3)cc12	–	inactive: 5.75%
CCN(c1cccc(C)c1)S(=O)(=O)c1nnc(NC(=O)c2cccs2)s1	–	inactive: -28.3%
O=C(COC(=O)c1cc(-c2cccs2)nc2ccccc12)c1ccc(Br)cc1	inconclusive: 39.8 µM [activator, single point]	–
COC(=O)c1cnn(-c2ccc(C(=O)Nc3cccc(C(C)=O)c3)cc2)c1N	inconclusive: 2.82 µM [activator, full curve]	–
O=C(CCCCCn1c(=O)[nH]c2ccccc2c1=O)NCc1cccc(Cl)c1	inconclusive: 12.6 µM [activator, partial curve]	–
Cc1ccc(Nc2ncnc3c2cnn3-c2ccccc2)c(C)c1	inconclusive: 22.4 µM [activator, partial curve, poor fit]	–
C#CCn1c(COc2ccccc2C)nc2ccccc21	inconclusive: 8.91 µM [activator, partial curve]	–
Cc1ccc(OCC(=O)Nc2cccc(OCc3cc(=O)n4ccccc4n3)c2)cc1C	inconclusive: 2 µM [activator, full curve, poor fit]	–
CCOc1ccc(CN2CCc3nc(N4CCN(c5ccccn5)CC4)ncc3C2)cc1OC	–	inconclusive: -60% [activator]
COc1ccc(-c2coc3c2c(C)cc2oc(=O)c(CC(=O)O)c(C)c23)cc1	–	inactive: -16.2%
CCc1ccc(Nc2nnc(-n3nc(C)cc3C)c3ccccc23)cc1	–	inconclusive: 30.8% [activator]
CCOc1ccc(-c2nc3ccccc3c(=O)o2)cc1	inconclusive: 1.58 µM [activator, full curve, poor fit]	–
CCOc1ccc(NC(=O)CC2C(=O)N(c3cccc(OC)c3)C(=O)N2C2CCCCC2)cc1 (stereo not drawn)	–	inactive: -6.38%
CCCCN(C)c1ncnc2c1cnn2-c1cccc(Cl)c1	inconclusive: 3.16 µM [activator, partial curve, poor fit]	–
CCCc1oc2ccc(NS(=O)(=O)c3ccc(OC)cc3)cc2c1C(=O)OCC	–	inactive: -48.2%
